# Laboratory results: the supplement of paper PMC12645437, “Orthogonal IMiD-Degron Pairs Induce Selective Protein Degradation in Cells” (ACS Chemical Biology, 2025)
# This is one part of the list.
# B1: Q9UKT9 (peptide)
# chain: FKCPQCGAMFTQKGNLLRHIKL
# B2: Q9UKT9 (peptide)
# chain: FSCEICGHEFTQKGNLLRHIKL
# B3: Q9UKT9 (peptide)
# chain: FNCPICGRIFTQKGNLLRHIKL
# B4: Q9UKT9 (peptide)
# chain: LMCEICGFLCTQKGNLLRHIKL
# B5: Q9UKT9 (peptide)
# chain: FICSVCGHCFTQKGNLLRHIKL
# B6: Q9UKT9 (peptide)
# chain: FVCNVCGAQFTQKGNLLRHIKL
# B7: Q9UKT9 (peptide)
# chain: FHCDICGARFTQKGNLLRHIKL
# B8: Q9UKT9 (peptide)
# chain: FSCDVCGALFTQKGNLLRHIKL
# B9: Q9UKT9 (peptide)
# chain: FKCEICGAIFTQKGNLLRHIKL
# B10: Q9UKT9 (peptide)
# chain: FACPVCGATFTQKGNLLRHIKL
# B11: Q9UKT9 (peptide)
# chain: FKCNQCGHCFTQKGNLLRHIKL
# B12: Q9UKT9 (peptide)
# chain: FHCPVCGACFTQKGNLLRHIKL
# B13: Q9UKT9 (peptide)
# chain: FVCPVCGAVFTQKGNLLRHIKL
# B14: Q9UKT9 (peptide)
# chain: LTCPICGFTCTQKGNLLRHIKL
# B15: Q9UKT9 (peptide)
# chain: FACDICGASFTQKGNLLRHIKL
# B16: Q9UKT9 (peptide)
# chain: FICEICGHWFTQKGNLLRHIKL
# B17: Q9UKT9 (peptide)
# chain: FQCPICGRIFTQKGNLLRHIKL
# B18: Q9UKT9 (peptide)
# chain: FQCEICGHWFTQKGNLLRHIKL
# B19: Q9UKT9 (peptide)
# chain: LGCEICGFWCTQKGNLLRHIKL
# B20: Q9UKT9 (peptide)
# chain: FYCPQCGAVFTQKGNLLRHIKL
# B21: Q9UKT9 (peptide)
# chain: FMCNICGAWFTQKGNLLRHIKL
# B22: Q9UKT9 (peptide)
# chain: FACDICGAVFTQKGNLLRHIKL
# B23: Q9UKT9 (peptide)
# chain: FGCPQCGAFFTQKGNLLRHIKL
# B24: Q9UKT9 (peptide)
# chain: FECNVCGAPFTQKGNLLRHIKL
# B25: Q9UKT9 (peptide)
# chain: FDCDICGAPFTQKGNLLRHIKL
# B26: Q9UKT9 (peptide)
# chain: LFCNQCGFWCTQKGNLLRHIKL
# B27: Q9UKT9 (peptide)
# chain: FKCEICGRAFTQKGNLLRHIKL
# B28: Q9UKT9 (peptide)
# chain: FKCEICGHGFTQKGNLLRHIKL
# B29: Q9UKT9 (peptide)
# chain: FSCEQCGAGFTQKGNLLRHIKL
# B30: Q9UKT9 (peptide)
# chain: LNCEICGFVCTQKGNLLRHIKL
# B31: Q9UKT9 (peptide)
# chain: FTCNQCGADFTQKGNLLRHIKL
# B32: Q9UKT9 (peptide)
# chain: FGCPICGHKFTQKGNLLRHIKL
# Target: no compound (DMSO)
# Assay: log2 fold change of degron read counts, EGFP-low vs EGFP+ sorted cells; higher = lower degron-EGFP level without compound (poor expression or instability)
# Conditions: compound: DMSO control; 18 h
# 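Note: jurkat cells carrying a lentiviral library of mutant zinc finger degrons fused to EGFP plus mCherry, mCherry+ cells FACS sorted, degron abundance counted by next-generation sequencing.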
row,Sequence,log2 fold change of degron read counts
1,B1,-0.595
2,B2,-2.5
3,B3,0.0726
4,B4,0.451
5,B5,0.275
6,B6,-0.595
7,B7,-0.909
8,B8,-0.822
9,B9,-1.63
10,B10,0.0436
11,B11,-0.131
12,B12,-0.269
13,B13,-0.431
14,B14,0.0728
15,B15,-0.932
16,B16,-1.53

row,Sequence,log2 fold change of degron read counts
1,B17,0.443
2,B18,-0.926
3,B19,1.63
4,B20,0.638
5,B21,0.444
6,B22,-1.82
7,B23,0.142
8,B24,-0.921
9,B25,-0.655
10,B26,2.11
11,B27,-1.88
12,B28,-2.38
13,B29,-1.04
14,B30,0.592
15,B31,-2.04
16,B32,0.244
